Assay results taken from patent US6020121A (priority 1996, dated 2000).
At least one compound was matched to its structure with a doubt left.

Tests used:
RNAIII = RNAIII Northern Blot; settings: Table 4; vs untreated wild type Agr+ S. aureus
Lipase = Lipase production; assay type: cell-based, Staphylococcus aureus; settings: Table 4; vs untreated wild type Agr+ S. aureus
V8 Protease = assay: V8 protease activity; assay type: cell-based, Staphylococcus aureus; settings: Table 4; vs untreated wild type Agr+ S. aureus
alpha-hemolysin = assay type: cell-based, Staphylococcus aureus
protein A = assay: Protein A expression immunoblot; assay type: cell-based, Staphylococcus aureus; settings: Table 4; relative to Agr- mutant cells
Experimental: FIG. 18. Immunodetection of staphylococcal protein A in treated and untreated cultures. Cells were grown in presence of compounds 1, 2, or 3 to a similar density (O.D. 600 nm--0.5-0.6). Cells were lysed using lysostaphin prior to separation of cell surface proteins by SDS-PAGE. After electrophoretic transfer of proteins from the gel onto a nitrocellulose membrane, detection of protein A on the blot was possible by using a specific anti-protein A antibody and a second antibody that allowed chemiluminescent detection of immune complexes. The chemiluminescence was captured by autoradiography.
Protein A. Protein A expression is assayed by immunoblots of SDS-Page separated total cell proteins (Patel et al., Infection and Immunity 55:3103-3110 (1987)).

[1] = test system: B. subtilis strain 168 sporulation; assay: Sporulation; assay type: cell-based, Bacillus subtilis; settings: Table 4
Excerpt: Sporulation: Sporulation is a well-characterized event in many organisms, including Bacillus subtilis (spoIIJ/spo0A or spoIIJ/spo0F, Losick et al., Annu. Rev. Genet. 20:625-669 (1986); Smith, The initiation of sporulation,pp. 185-210, In I. Smith et al. eds., Regulation of procaryotic development, American Society for Microbiology, Washington, D.C. (1989)). It can be induced in various media (Leighton and Doi, J. Biol. Chem. 246:3189-3195 (1971); Piggot and Curtis, J. Bacteriol. 169:1260-1266 (1987)), and can be easily assayed (Nicholson and Setlow, Sporulation, germination, and outgrowth, pp. 391-429, In C. R. Harwood and S. M. Cutting eds., Molecular biological methods for Bacillus, John Wiley and Sons, Ltd., Chichester, West Sussex, England (1990)). Briefly, by heating the cells to 80-85° C. for 15-20 min, undifferentiated cells are killed while spores survive. Therefore, by determining the difference in viable cell count of control cultures versus heat treated cultures, it is possible to calculate the percent sporulation for a given culture or condition. Compounds that inhibit the signal transduction system responsible for the induction of sporulation will lower the viable cell count of the heat treated culture.

[2] = test system: S. typhimurium chemotaxis; assay: Chemotaxis (swarm agar plates); assay type: cell-based; settings: Table 4; Salmonella typhimurium
Excerpt: Chemotaxis: Motility has been studied in a variety of bacteria. The molecular mechanisms of motility have been best characterized in E. coli and S. typhimurium but analogs of the molecular components have been detected in both Gram-negative and Gram-positive organisms (Morgan et al., J. Bacteriol. 175:133-140 (1993)). A two-component regulatory system composed of either cheA/cheY or cheA/cheB (Stewart and Dahlquist, Chem. Rev. 87:997-1025 (1987); MacNab, Motility and Chemotaxis, pp. 732-759, In F. C. Neidhardt, et al., ed., Escherichia coli and Salmonella typhimurium: cellular and molecular biology, American Society for Microbiology, Washington, D.C. (1987)), is central to the ability of these organisms to detect and respond appropriately to chemical substances. Such response can be detected on minimal swarm agar plates containing a chemoattractant (sugars or amino acids) (J. S. Parkinson, J. Bacteriol. 126:758-770 (1976)), or a capillary assay system, in which chemoattractant is placed in a capillary tube and immersed in a liquid bacterial culture. Bacteria capable of chemotaxis will swim into the capillary and can be detected by performing viable cell counts (Adler, J. Gen. Microbiol. 74:77-91 (1973)). Bacteria are to be tested with capillaries or swarms containing a known chemoattractant, with chemoattractant and test compound in the assay medium, and with no chemoattractant but with test compound in the assay medium to determine the extent of suppression of chemotaxis caused by a given test compound. Inhibitors of the signal transduction components involved in chemotaxis should modulate the ability of the bacteria to swim into the capillary tube, thereby changing the viable cell count, or alter the diameter of bacterial swarms.

Structure (SMILES)	RNAIII expression (RNAIII)	Lipase expression (Lipase)	V8 Protease expression (V8 Protease)	Alpha-Hemolysin expression (alpha-hemolysin)	Protein A expression (protein A)	Sporulation [1]	Chemotaxis [2]
C=C(C)C=CCC1C(C)(O)CCC2C(C)(C)CCCC21C (stereo not drawn) [Compound 1]	+ (Compounds that reduce expression of RNAIII, alphahemolysin, lipase, or V8 protease by 25% to 50% compared to production levels observed in untreated wild type controls (Agr+ S. aureus cells).)	++ (Compounds that reduce expression of RNAIII, alphahemolysin, lipase, o V8 protease by more than 50% compared to expression levels observed in untreated wild type controls (Agr+ S. aureus cells).)	N	++	N	N	N
CC(=O)OC1CCC2(C)C(CC(=O)C3(C)C2CCC2(C)C(c4ccoc4)OC(=O)C4OC423)C1(C)C (stereo not drawn) [Compound 2]	++ (Compounds that reduce expression of RNAIII, alphahemolysin, lipase, o V8 protease by more than 50% compared to expression levels observed in untreated wild type controls (Agr+ S. aureus cells).)	++ (Compounds that reduce expression of RNAIII, alphahemolysin, lipase, o V8 protease by more than 50% compared to expression levels observed in untreated wild type controls (Agr+ S. aureus cells).)	+ (Compounds that reduce expression of RNAIII, alphahemolysin, lipase, or V8 protease by 25% to 50% compared to production levels observed in untreated wild type controls (Agr+ S. aureus cells).)	++	[++] (compounds that increase S. aureus protein A expression to at least 50% of the level of expression observed in Agr- mutant cells)	N	N
CC(=O)OC1CC2C(C)(C)CCCC2(C)C2CCC3(C)C(=CC(=O)OC3c3ccoc3)C12C (stereo not drawn) [Compound 3]	+ (Compounds that reduce expression of RNAIII, alphahemolysin, lipase, or V8 protease by 25% to 50% compared to production levels observed in untreated wild type controls (Agr+ S. aureus cells).)	+ (Compounds that reduce expression of RNAIII, alphahemolysin, lipase, or V8 protease by 25% to 50% compared to production levels observed in untreated wild type controls (Agr+ S. aureus cells).)	+ (Compounds that reduce expression of RNAIII, alphahemolysin, lipase, or V8 protease by 25% to 50% compared to production levels observed in untreated wild type controls (Agr+ S. aureus cells).)	++	[++] (compounds that increase S. aureus protein A expression to at least 50% of the level of expression observed in Agr- mutant cells)	++ (compounds that decrease B. subtilis sporulation by more than 50%)	N
O=C1OC(c2cccnc2Sc2ccc(Cl)cc2)=NC1=Cc1ccc(C(F)(F)F)cc1 [Compound 18]	++ (Compounds that reduce expression of RNAIII, alphahemolysin, lipase, o V8 protease by more than 50% compared to expression levels observed in untreated wild type controls (Agr+ S. aureus cells).)	++ (Compounds that reduce expression of RNAIII, alphahemolysin, lipase, o V8 protease by more than 50% compared to expression levels observed in untreated wild type controls (Agr+ S. aureus cells).)	+ (Compounds that reduce expression of RNAIII, alphahemolysin, lipase, or V8 protease by 25% to 50% compared to production levels observed in untreated wild type controls (Agr+ S. aureus cells).)	++		N	N
